# Measured values: the antibiotic and cytotoxicity screens of Wong et al. (2023)
# The other results are listed elsewhere or left out.
# Tests used:
# HSkMC = human skeletal muscle cells; assay: cytotoxicity call (relative viability < 0.9); details: 10 µM
# HepG2 = assay: cytotoxicity call (relative viability < 0.9); details: 10 µM
# S. aureus RN4220 = assay: growth inhibition call (relative growth <= 0.2); details: 50 µM
SMILES,cytotoxicity call (HSkMC),cytotoxicity call (HepG2),growth inhibition call (S. aureus RN4220)
C[C@@H]1CN([C@H](C)CO)C(=O)Cc2cc(NC(=O)Nc3cccc4ccccc34)ccc2O[C@@H]1CN(C)S(=O)(=O)c1ccc(Cl)cc1,inactive,inactive,inactive
CC(=O)N[C@@H]1CC[C@H](CCNC(=O)C2CC2)O[C@@H]1CO,inactive,inactive,inactive
CCCCCOc1ccc(-c2cc(-c3ccc(C(=O)N[C@H]4C[C@@H](O)[C@@H](O)NC(=O)[C@H]5[C@@H](O)[C@@H](C)CN5C(=O)[C@H]([C@@H](O)CC(N)=O)NC(=O)[C@H]([C@@H](O)[C@@H](O)c5ccc(O)c(OS(=O)(=O)O)c5)NC(=O)[C@H]5C[C@@H](O)CN5C(=O)[C@H]([C@@H](C)O)NC4=O)cc3)no2)cc1,inactive,inactive,inactive
C[C@H](CO)N1C[C@H](C)[C@@H](CN(C)Cc2ccc(Oc3ccccc3)cc2)Oc2ccc(NC(=O)c3ccncc3)cc2C1=O,inactive,inactive,inactive
C[C@H]1CN([C@@H](C)CO)C(=O)c2cccc(NC(=O)Nc3ccc4c(c3)OCO4)c2O[C@H]1CN(C)C(=O)Nc1ccc(C(F)(F)F)cc1,inactive,inactive,inactive
CC(C)NC(=O)N(C)C[C@@H]1OCCCC[C@H](C)Oc2ccc(NC(=O)Nc3ccccc3)cc2C(=O)N([C@H](C)CO)C[C@@H]1C,inactive,inactive,inactive
CC(C)NC(=O)N(C)C[C@@H]1OCCCC[C@H](C)Oc2ccc(NC(=O)Nc3cccc4ccccc34)cc2C(=O)N([C@@H](C)CO)C[C@H]1C,inactive,inactive,inactive
O=C(C[C@@H]1CC[C@H]2[C@@H](COC[C@H](O)CN2S(=O)(=O)c2ccc(F)cc2)O1)NCc1ccc(Cl)c(Cl)c1,inactive,inactive,inactive
C[C@@H]1CN([C@@H](C)CO)C(=O)c2cc(NC(=O)C3CCCCC3)ccc2O[C@@H](C)CCCCO[C@@H]1CN(C)C(=O)c1ccccc1,inactive,inactive,inactive
C[C@@H]1CN([C@H](C)CO)S(=O)(=O)c2ccc(C#Cc3ccccn3)cc2O[C@@H]1CN(C)Cc1ccccc1,inactive,inactive,inactive
NCc1ccncc1,inactive,inactive,inactive
C[C@@H]1CN([C@H](C)CO)S(=O)(=O)c2ccc(C#CCN(C)C)cc2O[C@@H]1CN(C)Cc1ccc2c(c1)OCO2,inactive,inactive,inactive
CC(C)CCN1CCc2nnc(CO)n2CC1,inactive,inactive,inactive
C[C@H]1CN([C@@H](C)CO)C(=O)c2cccc(NC(=O)c3ccc(-c4nccs4)cc3)c2O[C@@H]1CN(C)S(C)(=O)=O,inactive,inactive,inactive
C[C@H](CO)N1C[C@H](C)[C@@H](CN(C)Cc2ccc(Oc3ccccc3)cc2)Oc2ccc(NC(=O)Nc3ccc4c(c3)OCO4)cc2CC1=O,active,inactive,inactive
CCO[C@H]1OC(C(=O)N2CCN(Cc3ccc4c(c3)OCO4)CC2)=C[C@@H](c2ccc(Br)cc2)[C@@H]1CCCOC(=O)NCCCCCC(=O)NO,inactive,inactive,inactive
C[C@@H]1CCCCO[C@@H](CN(C)C(=O)Nc2ccc3c(c2)OCO3)[C@@H](C)CN([C@H](C)CO)C(=O)c2cc(NC(=O)c3ccncc3)ccc2O1,inactive,inactive,inactive
c1ccc(-c2nn[nH]n2)cc1,inactive,inactive,inactive
O=C(O)c1cc(=O)[nH]c(=O)[nH]1,inactive,inactive,inactive
COc1ccc(-c2cc(=O)c3c(O)cc(O[C@@H]4O[C@H](CO[C@@H]5O[C@@H](C)[C@H](O)[C@@H](O)[C@H]5O)[C@@H](O)[C@H](O)[C@H]4O)cc3o2)cc1O,inactive,inactive,inactive
Clc1cccc(Cl)c1CSc1cccs1,inactive,inactive,inactive
CC[C@@H]1CN(C(=O)c2ccccn2)N1,inactive,inactive,inactive
Cc1ccc(S(=O)(=O)Nc2ccc3c(c2)C(=O)N([C@@H](C)CO)C[C@@H](C)[C@H](CN(C)S(=O)(=O)c2ccc(F)cc2)OCCCC[C@H](C)O3)cc1,inactive,inactive,inactive
C[C@@H]1CCCCO[C@@H](CN(C)S(=O)(=O)c2ccccc2)[C@@H](C)CN([C@H](C)CO)C(=O)c2cc(NC(=O)Nc3ccccc3)ccc2O1,inactive,inactive,inactive
Cc1noc(C)c1NC(=O)Nc1ccc2c(c1)C(=O)N([C@H](C)CO)C[C@H](C)[C@H](CN(C)S(C)(=O)=O)O2,inactive,inactive,inactive
O=c1[nH]cccc1F,inactive,inactive,inactive
COC(=O)c1c2oc(c1C(=O)OC)C(=O)N(C)Cc1cn(nn1)C[C@H](Cc1ccccc1)NC(=O)N[C@H](CO)CC2,inactive,inactive,inactive
COc1ccc2c3c([nH]c2c1)[C@@H](CO)N(C[C@]13CCN(CC1)C(=O)Nc1ccc2c(c1)OCO2)C(=O)Nc1ccc(cc1)F,inactive,inactive,inactive
